The supplement of paper PMC7826260
The other results are listed elsewhere or left out. Viral Rep nickase domains cut single-stranded DNA in vitro (3 µM enzyme, 1 h, 37 °C); shown is the middle of each 90-letter strand. The score is log2 (uncut reads / reads without enzyme); the lower, the more was cut; hits are not called. Reads are scaled to the total; values above 0 arise when much of the pool is cut.

The sequences below were run on T1, Rep nickase domain of Muscovy duck circovirus (assay: uncleaved DNA left, log2 of reads against the no-enzyme library (log2 ratio); higher = less cleavage (more negative = more Rep cleavage of the k-mer); sequences stand for … in CTCGTCCG…ACCGGAGA).
T1 sequence (residues 1-111 of Rep, tag left off): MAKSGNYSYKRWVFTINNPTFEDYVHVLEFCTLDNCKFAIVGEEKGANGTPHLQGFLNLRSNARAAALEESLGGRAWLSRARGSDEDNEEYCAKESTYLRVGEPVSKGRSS
Method: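 A pool of 90-nt single-stranded DNAs with seven random bases just before the constant AC of the nick site (name = the seven bases) was cut by 3 µM recombinant His6-SUMO-tagged Rep nickase domain (300 nM DNA, 50 mM HEPES pH 8.0, 50 mM NaCl, 1 mM MnCl2, 1 h, 37 °C, three replicates). Uncut DNA was amplified and sequenced.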

Sequence	uncleaved DNA left (log2)
CACGTGG	-0.0843
CCGGTAT	0.0714
GAAAATG	0.101
GATGAGG	0.129
CGCTATC	0.0211
GATCTGT	0.163
GCATTCG	-0.09
GTAGCCT	-0.000636
TTCTAAC	-0.0148
AGCTATA	-0.0703
GTCGTTA	-0.0855
AGTCCTC	0.0068
CAAATAT	0.0659
GTGGAAT	-0.024
TCTCTCG	0.0367
GCGACTG	-0.0345
ATGTTTG	0.145
CCGTCAC	-0.104
AATACTC	-0.083
CATGCCG	-0.0333

Sequence	uncleaved DNA left (log2)
ACACGAA	-0.0974
GGTTCCC	-0.237
GAAAAGA	0.0185
AGAGGGG	0.14
ATACTGC	0.0486
ACGTACT	-3.02
AAACACT	0.0257
GTTCGCG	-0.0699
CTATTCC	0.0149
TGGAGAT	0.0891
TCGATTA	-0.0764
TAAGCGC	0.094
TGGGAGA	-0.0719
GATACTG	0.0251
TACATTT	-0.505
TAAACTA	-0.0161
AGCAACT	0.0591
CATATAC	0.0731
AGCTGAG	0.117
TTGAAAG	0.00351
